In the supplement of paper PMC10126150:
Values marked as one replicate rest on one cluster of the flow cell; about a third of the high ones do not repeat.

System: ATP
Assay: switch fluorescence ratio, 500 uM ATP over buffer (Cy3 cluster intensity, sum of 5 cycles each) (fold (ratio)); higher = stronger signal-on switching upon ATP binding; sequences stand for … in TCGTCGGCAGCGTCAGATGTGTATAAGAGACAGTTTTTTTTTTTTTTTTTTTTTTTTT…TC
Conditions: aptamer strand: ATP DNA aptamer (quencher-CACCTGGGGGAGTATTGCGGAGGAAGG + anchor), 100 nM annealed; ATP concentration: 500 uM; one replicate
Procedure, shortened: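 Per cluster, summed Cy3 intensity from the target cycles was divided by that from the buffer cycles to give the fluorescence ratio, then averaged per switch-domain sequence. Clusters outside 100-1000 RFU were excluded. The Cy3-labelled switching-strand clusters, on a modified Illumina MiSeq flow-cell, were annealed to 100 nM quencher-labelled ATP aptamer and imaged in selection buffer, then after 15 min with 500 uM ATP at 22 °C, for five cycles with NaOH stripping and re-annealing between them.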
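Further: ATP exposure 15 min at 22 °C before imaging.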

Sequence | switch fluorescence ratio
GAACGTCGTA | 1.03
ATACTAACG | 1.36
CTTTGTCAC | 1.02
CCTGTATAC | 3.34
TAGCTCGAAT | 0.991
AGATTTTTGC | 1.05
ACGAACGGG | 1.48
TGACGGATTG | 0.944
AGTACTCGGA | 0.98
TTTGTAAGAC | 1.18
GGATCAAAGT | 0.999
CTATGGTGGG | 0.994
ACTGGCTATA | 1.17
GATAAAAGGG | 1.06
CCATGGAGAG | 0.975
ATTAGACGGG | 0.943
CAAGGGCTAT | 0.99
CAGCTGTTCT | 1.01
GTTTTAGTTC | 0.97
CGCGCGCCAT | 1.04
TTCGATTGCC | 0.954
ACGATGGTGG | 0.837
CGGCACTTCA | 1.03
ATACAGATAG | 1.01
ACCCTTTCCA | 1.05
GTGGTGCTAC | 1

Sequence | switch fluorescence ratio
TCGTCAGGGA | 1.04
CGCCCGTCCT | 0.989
TCTCGCAAGG | 1.95
TGTTTTGGC | 1.01
TGACTGCCCA | 1.1
TATATATTCT | 1.01
ATTAATATCC | 0.998
GACCAGTTCC | 1.21
AGACGTTGAG | 1.02
ACGGTGTCGC | 0.989
GGAGTTCCTT | 1.03
CAAGATTCGC | 0.977
CTCCAATGCC | 1.43
ATTGTATGCA | 1.01
TAAGGGCGTG | 1.03
GTTGCCCCGA | 1.01
TCCAGCGCTT | 1.3
CACTGGCAGG | 0.974
TGGTGATCTA | 0.989
TGTGTCGGTT | 0.967
AACGTGTCAT | 1.03
GACTTTGGCC | 0.983
GAGGTAGTGA | 1.02
TTCAAGCCTC | 1.08
GGTTTATAGC | 1
TCAGGGTCAC | 0.948

Sequence | switch fluorescence ratio
CGAGATCCTT | 1.03
ACCAAAACGG | 1.07
CGTTAGAAAT | 1.05
GATCCCGTAT | 1.04
TACCGGGATG | 1.03
TATCTTCTTT | 1.02
TGCGTATCAG | 0.949
TGGTCATTGT | 0.979
CGAAAGGTGT | 1.16
TGTCTAGAGG | 0.995
TGCAGTTAGG | 1.02
CGCTGGCTAG | 0.999
GTCTGACGGA | 1.01
GACGTTCTAA | 1.08
TTAGCACCGA | 1.1
CATCTTCTGA | 1.02
CGTCGTTTAT | 1.03
ATTTCTGTTG | 0.998
ATTATCTCTT | 0.99
CGATATCCTT | 1.03
AAAAAAGCAA | 1.23
TAATAGGGA | 1.01
ATCACACCCG | 1.17
CTGAACTATT | 0.985
CGCAGCGGCG | 1.01
CGGCTAGCTA | 1

Sequence | switch fluorescence ratio
ACACGCCGGG | 1.22
GATGAGCCCG | 0.995
CCTCATTAGG | 1.01
CACGTTGGTA | 1
GAGCGGGGG | 1.03
AGAAAACTCT | 0.997
GGATCTGGCG | 0.965
AAGGCAGACG | 0.953
TCTTTAACAG | 1.03
GAAATCTGAT | 0.993
ATTAGCGGAT | 0.993
TAATTACTAC | 1.11
ACATTCGTTT | 0.998
ACGTTTCTGC | 0.994
ACGCATGTTC | 1.31
CTATAGAGGC | 0.98
AACCATACTT | 1.2
GGCGGTCGAG | 1.05
TCCCCGACCT | 1.32
CGTGGATGAA | 1.02
GACATGGGGT | 0.969
TAGATGTCAA | 0.973
GAGCTAGATG | 0.976
TGATCTTTGT | 1.01
CAAAAGGCCT | 1.01
AGAAAGACAG | 1.03

Sequence | switch fluorescence ratio
GTGCCAAGCG | 0.991
GGCAGGGACG | 0.938
TCCTACTCAT | 1.87
GTGATATACG | 1.08
GTGGCCGGTA | 0.996
GATGCTGCGG | 1.03
GGGCGGTTCC | 1.03
TTCCTTGATG | 1.04
GGTTCTAGA | 1.02
GAAAGTTTCA | 1.01
TAGGTCCTCC | 1.03
CTCGCACAGC | 1.95
AGGGTCTGCT | 0.995
AACTACGGGG | 1.01
ATCTAAGTGA | 0.97
ATTCCCAGAC | 1.34
TACTGTAGA | 1.05
TGGTGGCCTA | 1.01
GGCGAACGCG | 1.01
AGGTAAAACG | 1.03
CCCAGTAGCC | 1.01
ATATACTACT | 1.08
ACGTCCGGTT | 0.993
GTATATGTTA | 0.984
ATCAGTATGC | 1.1
CATATGTAAC | 1.03

Sequence | switch fluorescence ratio
CTAATCGTCC | 1.14
CTCAGATAT | 1.02
GTCGGAAGTC | 1.06
TGTATTAGTC | 1.07
AGGGCCCCG | 0.983
CTCAAGAACA | 0.983
TTGGTGACAC | 1.05
ACCGACAACT | 1.28
TACGCAGACT | 1.82
CTATCACATT | 0.969
TGGTTTTTAT | 0.991
GGTTGTTCCT | 0.984
AGAGAGCCCG | 0.966
AGCCGTCATG | 0.976
TCCATAGCGT | 2.08
AATGTATATA | 1.02
GTAGTCTTTT | 0.984
TTATATACAT | 0.997
GTTGCCTAGT | 0.975
GACATCACCA | 1.25
GATACTCGTT | 0.954
AGATTAGGC | 1.02
GACGGGGTTT | 1.67
